This note sets out measurements from PubChem BioAssay AID1508623 (National Center for Advancing Translational Sciences (NCATS), 2021).

Screen size: about 48,000 compounds; about 450 (0.94%) were called active. Another 19% or so got no clear call; they are omitted. Calls come from the whole dose curve; as a rule, active = well fitted inhibition curve with a large enough effect; inconclusive = small, poorly fitted or top-dose-only effect; inactive = no such curve, though single readings can be large or run the other way. This is one part of the list.

The test can be described thus: Primary qHTS for Identification of Small Molecule Inhibitors of Huntingtin Promoter Activity. Note: nearly all actives have a fitted effect of over 50% in size. To be noted: HEK293 HTT promoter firefly luciferase reporter (activity 0% = vehicle and -100% = no light), 24 h; series mostly up to 57.5 µM; activity change, negative = inhibition: at the top concentration. An outline of the steps: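 Luminescence was read after Dual-Glo reagent and a 10 min room-temperature incubation. Values were normalized to vehicle (0% activity) and zero RLU (-100% activity). Reporter HEK293 cells had been exposed to compounds (up to 57.5 uM final) for 24 h.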
For orientation: Quantitative high-throughput screening tests each substance at several concentrations.
Turning to `Cc1cccc(NC(=O)CSc2ncc3c(n2)-c2cc(Cl)ccc2N(C)S3(=O)=O)c1C`, the “activity change, negative = inhibition” value is inactive: -17.9%.

On to `CC(C)c1ccc(Nc2cc(C(=O)NCCCN(C)Cc3ccccc3)c3ccccc3n2)cc1`, for which the “activity change, negative = inhibition” value was inactive: -5.78%.

Turning to `CC(=O)N1CCN(C(=O)C(=O)Nc2c3c(nn2-c2ccc(Cl)cc2)CSC3)CC1`, the “activity change, negative = inhibition” value is inactive: -12.5%.

As to `CCc1ccc(OCC(=O)Nc2cc3oc4ccccc4c3cc2OC)c(Br)c1`, the “activity change, negative = inhibition” value is inactive: -13%.

For the compound `COc1ccc(-c2nnc(SCC(=O)N3CCCCC3)o2)cc1`, the “activity change, negative = inhibition” value was inactive: 41.2%.

For the compound `O=C(COc1ccccc1)Nc1c(C(=O)N2CCN(c3ccc(F)cc3)CC2)oc2ccccc12`, the “activity change, negative = inhibition” value was inactive: -5.36%.

Take `CC1CCN(C(=O)CN2c3ccc(Br)cc3-c3ccccc3S2(=O)=O)CC1`: the “activity change, negative = inhibition” value is inactive: 43.4%.

Consider `O=C1CC(c2ccccc2)Cc2[nH]c(=O)c(C(=O)Nc3ccc(F)cc3)cc21` (stereo unspecified), for which the “activity change, negative = inhibition” value is inactive: -8.26%.

As to `CCOc1ccc(CCNC(=O)CCCc2nnc3n(CCCOC)c(=O)c4sccc4n23)cc1`, the “activity change, negative = inhibition” value was inactive: -11.6%.

As to `Cc1c(C(=O)N2CCCCCC2)c(S(=O)(=O)Nc2ccc(OC(F)(F)F)cc2)c(C)n1C`, the “activity change, negative = inhibition” value was inactive: -25.5%.

With `CCOC(=O)c1ccc(NC(=O)CSc2cc(-c3ccccc3)nc(C)n2)cc1`, the “activity change, negative = inhibition” value was inactive: -21.5%.

For the compound `CC(C)CC(=O)Nc1nnc(S(=O)(=O)N(C)c2ccc(Cl)cc2)s1`, the “activity change, negative = inhibition” value is inactive: -16.9%.

Regarding `Cc1c(-c2ccc(Cl)cc2)c(=O)oc2c(CN3CCN(C)CC3)c(O)ccc12`, the “activity change, negative = inhibition” value is inactive: -12.7%.

Turning to `O=C(CNC(=O)c1ccccc1Cl)OCc1cc(=O)n2nc(C3CC3)sc2n1`, the “activity change, negative = inhibition” value was inactive: -10.9%.

With `CC1CCc2c(sc3nc(-c4cc5ccccc5oc4=O)nc(Cl)c23)C1` (stereo unspecified), the “activity change, negative = inhibition” value was inactive: -5.92%.

`CCOc1ccc(C2c3c(-c4ccccc4O)n[nH]c3C(=O)N2Cc2cccnc2)cc1OC` (stereo unspecified): the “activity change, negative = inhibition” value is inactive: -9.39%.

Regarding `O=S(=O)(c1cccc2cnccc12)N1CCCNCC1`, the activity change, negative = inhibition result is “inactive”.

On to `CC(C)c1nn2c(=O)cc(COC(=O)c3cccc(NC(=O)c4ccccc4F)c3)nc2s1`, for which the “activity change, negative = inhibition” value was inactive: -11.1%.

Turning to `CCC1Oc2ccc(C)cc2N(CC(=O)NCc2ccc(F)cc2)C1=O` (stereo unspecified), the “activity change, negative = inhibition” value is inactive: -18.2%.

For `COc1cccc(CNC(=O)Cn2c(=O)cc(C(F)(F)F)c3c(C)nn(C)c32)c1OC`, the “activity change, negative = inhibition” value was inactive: -0.736%.

Turning to `CCOC(=O)c1ccc2c(c1)sc1nc(-c3ccc(OCC)cc3)cn12`, the “activity change, negative = inhibition” value was inactive: -9.98%.

Take `CCN(CC)CCCNC(=O)c1c2c(nc3ccccc13)C(=O)N(C1CCCCC1)C2`: the “activity change, negative = inhibition” value is inactive: -8.88%.

Consider `COc1ccc(NC(=O)CCc2nc3cccnc3n2-c2ccccc2)c(OC)c1`, for which the “activity change, negative = inhibition” value was inactive: -32.2%.

On to `COc1ccc(N2C(=O)C(CC(=O)Nc3ccc(Cl)cc3)N(Cc3ccc4c(c3)OCO4)C2=O)cc1` (stereo unspecified), for which the “activity change, negative = inhibition” value was inactive: -27.1%.

Turning to `CCOC(=O)c1c(NC(=O)c2cc(=O)c3cc(Cl)ccc3o2)sc(C)c1C`, the “activity change, negative = inhibition” value was inactive: 13%.

As to `COc1cc(C(=O)Nc2ccccc2OCc2cc(=O)n3c(C)csc3n2)cc(OC)c1OC`, the “activity change, negative = inhibition” value was inactive: -3.1%.
